From article PMC4336329 (PLoS ONE, 2015)
The whole screen tested about 310,000 compounds, of which about 14,000 (4.5%) showed an effect of 50% or more. Effects have a minus sign here. The list shows a part of the results.

Molecular target: human ether-à-go-go-related gene (hERG) potassium channel (human, UniProt Q12809)
Assay: primary screen, population patch clamp on CHO cells stably expressing hERG
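Note: peak tail current of the secondary pulse compared with the same well before compound.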

Sequence of human ether-à-go-go-related gene (hERG) potassium channel (Q12809 whole entry, looked up): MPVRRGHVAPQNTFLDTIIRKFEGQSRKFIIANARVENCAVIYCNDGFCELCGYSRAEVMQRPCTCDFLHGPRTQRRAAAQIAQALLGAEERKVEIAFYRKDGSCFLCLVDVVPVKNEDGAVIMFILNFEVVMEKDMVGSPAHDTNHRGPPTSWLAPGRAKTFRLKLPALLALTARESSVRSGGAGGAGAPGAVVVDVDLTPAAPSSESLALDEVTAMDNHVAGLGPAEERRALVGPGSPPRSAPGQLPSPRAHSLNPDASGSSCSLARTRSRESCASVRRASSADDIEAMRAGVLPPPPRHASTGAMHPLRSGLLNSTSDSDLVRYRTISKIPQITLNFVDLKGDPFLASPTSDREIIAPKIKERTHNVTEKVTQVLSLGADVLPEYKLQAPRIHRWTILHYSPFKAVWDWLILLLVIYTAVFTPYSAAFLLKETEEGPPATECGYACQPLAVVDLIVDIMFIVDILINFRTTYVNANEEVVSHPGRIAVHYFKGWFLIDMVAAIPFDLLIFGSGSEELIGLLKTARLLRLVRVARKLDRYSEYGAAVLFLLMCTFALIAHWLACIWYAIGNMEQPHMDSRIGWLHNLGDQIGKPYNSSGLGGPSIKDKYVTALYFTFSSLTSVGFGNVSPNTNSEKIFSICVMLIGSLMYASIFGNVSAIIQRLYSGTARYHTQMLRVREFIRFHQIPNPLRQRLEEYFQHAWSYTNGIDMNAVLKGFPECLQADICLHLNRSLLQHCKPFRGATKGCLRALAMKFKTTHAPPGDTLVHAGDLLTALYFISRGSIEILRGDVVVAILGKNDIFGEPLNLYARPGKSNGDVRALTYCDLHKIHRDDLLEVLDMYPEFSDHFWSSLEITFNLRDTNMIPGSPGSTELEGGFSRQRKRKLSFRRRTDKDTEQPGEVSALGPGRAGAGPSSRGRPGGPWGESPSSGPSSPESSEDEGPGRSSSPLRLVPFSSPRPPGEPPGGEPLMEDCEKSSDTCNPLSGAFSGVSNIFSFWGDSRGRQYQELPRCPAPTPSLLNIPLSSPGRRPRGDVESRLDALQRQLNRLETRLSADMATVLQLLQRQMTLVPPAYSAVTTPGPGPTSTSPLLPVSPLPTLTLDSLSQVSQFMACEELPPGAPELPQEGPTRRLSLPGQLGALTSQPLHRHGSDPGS

Compound	hERG current change (%, negative = inhibition) at 10uM [%]
Cn1c(SCC(=O)NCCNC(=O)CSc2nnc(C(F)(F)F)n2C)nnc1C(F)(F)F	0.297
COc1ccc(CCNC(=S)NC(=O)c2ccc(Br)cc2)cc1OC	16.2
c1ccc(CSc2nnc(-c3cccs3)o2)cc1	-13.5
CSc1nnc([C@@H]2CCCN2C(=O)OC(C)(C)C)o1	19.2
C=CCn1c(=O)/c(=C\c2ccccn2)s/c1=C(/C#N)C(=O)NCC1CCCO1 (centres unmarked)	-3.51
Cc1c(-n2c(SCC(C)C)nc3ccccc3c2=O)c(=O)n(-c2ccccc2)n1C	0.437
CC(C)OP(=O)(OC(C)C)C(NC(=O)c1ccccc1)C(N)=O (centres unmarked)	-3.65
O=[N+]([O-])c1ccc(NC2CCN(Cc3ccccc3)CC2)c([N+](=O)[O-])c1	-85.4
COc1cc(/C=c2\sc3nc(=O)c(-c4ccccc4)nn3c2=O)ccc1OCCC(C)C	-13.4
O=S(=O)(c1ccccc1)N1CCN(C/C=C/c2ccccc2)CC1	-22
NC(=S)N/N=C/c1c(O)c(Br)cc2oc3c(c12)CCCC3	2.84
CCOC(=O)C1=C(N)N(c2cc(S(=O)(=O)N3CCOCC3)ccc2Cl)C(=O)C1	5.74
Cc1c(NC(=O)/C(C#N)=C/c2ccc(-c3ccccc3Cl)o2)c(=O)n(-c2ccccc2)n1C	-30.5
N#Cc1nc(-c2cccc3ccccc23)oc1N1CCCCC1	0.975
CCCCc1cc(=O)oc2cc(OCC(=O)NCCN3CCOCC3)c(Cl)cc12	1.96
COc1ccccc1C(=O)NC(=O)COc1ccc(Cl)cc1Cl	-10
CN(C)C(=O)/C(=C\c1cccc(Oc2ccccc2)c1)NC(=O)c1ccccc1	-14.6
CN(CC(=O)Nc1ccc(F)c(F)c1F)C(=O)CCCSc1nc2ccccc2[nH]1	-12.5
Clc1ccc(-c2nnc(COc3ncnc4sccc34)o2)cc1	-10.5

Compound	hERG current change (%, negative = inhibition) at 10uM [%]
Cc1ccc2c(c1C)NC(C(=O)O)C1CC=CC21 (centres unmarked)	12
COc1ccccc1CNC(=O)c1ccc(-c2ccccc2)cc1	13.2
CCC1CCCCN1C(=O)c1sc2nc(C)nc(N(CC)CC)c2c1C (centres unmarked)	-26.3
CCc1cccc(NC(=O)c2cnn(-c3ccccc3)c2C)c1	-56
COc1cc(/C=C/c2cc(OC(C)=O)c3ccccc3n2)c(OC(C)=O)c([N+](=O)[O-])c1	5.5
CC(C)c1ccc(/C=C/C(=O)O)cc1	12.5
CS(=O)(=O)c1ccc(C(=O)OCC(=O)NNC(=O)COc2ccc(Cl)cc2)cc1	10.1
CC1(c2ccc(OC(F)F)cc2)NC(=O)N(CC(=O)NC2CCCCC2)C1=O (centres unmarked)	-39.2
COc1ccc(CCCc2nnc(SCC(=O)Nc3ccc(C)c(C)c3)o2)cc1	7.64
COc1ccc(NC(=O)N2CCC(c3nc(-c4cccs4)no3)CC2)cc1	-17.5
CC(=O)c1c(C)nc2ccc(Br)cc2c1-c1ccccc1	2.03
Cc1csc(NC(=O)CS(=O)(=O)Cc2ccccc2)n1	-4.71
COC(=O)c1ccc(CN(C)S(=O)(=O)c2cccs2)cc1	12.5
Fc1ccc(C2=CC(c3ccc(Br)o3)n3ncnc3N2)cc1 (centres unmarked)	-19.4
CC1(C)CC2=C(CO1)C(=S)NC(c1ccccc1)N2CC1CCCO1 (centres unmarked)	9
Cc1ccccc1NC(=O)NC1(C(=O)NCCCN2CCOCC2)CCCCC1	0.22
COc1ccc(-c2nc(SCC(=O)NC3CCCC3)c(-c3ccc(OC)cc3)[nH]2)cc1	-4.56
N/C(CSc1ccc(Cl)cc1)=N\NC(=O)c1ccncc1	-2.79
COc1ccc(Cl)cc1CNCCCSc1ncccn1.Cl	1.74

Compound	hERG current change (%, negative = inhibition) at 10uM [%]
COCc1cc(=O)[nH]c(Nc2nc(C)c3cc(OC)ccc3n2)n1	7.05
CC(COc1ccc(/C=C/c2ccccc2)cc1)[N+](C)(C)C.[I-] (centres unmarked)	-9.04
CC(=O)c1cccc(NCC(=O)c2ccc(C)c([N+](=O)[O-])c2)c1	-4.73
Cc1ccccc1Cn1cc(NC(=O)c2nn(C)cc2Cl)cn1	1.58
COc1ccc(N(CC(=O)N/N=C(\C)c2ccc(OC)c(OC)c2)S(=O)(=O)c2ccccc2)cc1	19.8
Cc1cccc(C)c1NC(=O)CSCc1cccc(CSCC(=O)Nc2c(C)cccc2C)n1	20.5
COc1ccc(N2CCN(C(c3ccccc3OC)c3nnnn3Cc3ccco3)CC2)cc1 (centres unmarked)	-6.24
CCCCn1c(N)c(N(CC(C)C)C(=O)c2ccco2)c(=O)[nH]c1=O	10.4
CCN(CC)C(=O)c1ccc(Oc2ccc([N+](=O)[O-])cc2Cl)cc1	-17.2
COc1ccc(S(=O)(=O)N2CCN(C(=O)CSC(=S)N3CCCC3)CC2)cc1	-19.6
O=C(COC(=O)C1CC2C=CC1C2)Nc1ccccc1F (centres unmarked)	-1.38
Cc1ccccc1OC(C)C(=O)N1CCN(c2ccccn2)CC1 (centres unmarked)	-8.24
O=C(CCNC(=O)c1ccc(Cl)cc1)Nc1ccncc1	-9.37
CC1(C)CNC(=O)c2sc(N3CCCCC3)nc2C1	1.87
Cc1[nH]c2ccccc2c1C(=O)CN1C(=O)NC2(CC(C)CC(C)(C)C2)C1=O (centres unmarked)	-2.43
Cc1ccc(N=Cc2c(O)ccc3ccccc23)cc1F	23.8
Nc1ccc(NC(=O)c2cccc(C(=O)Nc3ccc(N)cc3Cl)c2)c(Cl)c1	22
CCc1ccccc1OCCCOc1ccc(OC)cc1	14.1
